Out of some 310,000 compounds screened, about 2,200 (0.71%) showed an effect of 50% or more. Effects have a minus sign here. The list shows a part of the results.
Target: human ether-à-go-go-related gene (hERG) potassium channel (human, UniProt Q12809)
Assay: primary screen, population patch clamp on CHO cells stably expressing hERG

Chain of human ether-à-go-go-related gene (hERG) potassium channel (Q12809 whole entry, looked up): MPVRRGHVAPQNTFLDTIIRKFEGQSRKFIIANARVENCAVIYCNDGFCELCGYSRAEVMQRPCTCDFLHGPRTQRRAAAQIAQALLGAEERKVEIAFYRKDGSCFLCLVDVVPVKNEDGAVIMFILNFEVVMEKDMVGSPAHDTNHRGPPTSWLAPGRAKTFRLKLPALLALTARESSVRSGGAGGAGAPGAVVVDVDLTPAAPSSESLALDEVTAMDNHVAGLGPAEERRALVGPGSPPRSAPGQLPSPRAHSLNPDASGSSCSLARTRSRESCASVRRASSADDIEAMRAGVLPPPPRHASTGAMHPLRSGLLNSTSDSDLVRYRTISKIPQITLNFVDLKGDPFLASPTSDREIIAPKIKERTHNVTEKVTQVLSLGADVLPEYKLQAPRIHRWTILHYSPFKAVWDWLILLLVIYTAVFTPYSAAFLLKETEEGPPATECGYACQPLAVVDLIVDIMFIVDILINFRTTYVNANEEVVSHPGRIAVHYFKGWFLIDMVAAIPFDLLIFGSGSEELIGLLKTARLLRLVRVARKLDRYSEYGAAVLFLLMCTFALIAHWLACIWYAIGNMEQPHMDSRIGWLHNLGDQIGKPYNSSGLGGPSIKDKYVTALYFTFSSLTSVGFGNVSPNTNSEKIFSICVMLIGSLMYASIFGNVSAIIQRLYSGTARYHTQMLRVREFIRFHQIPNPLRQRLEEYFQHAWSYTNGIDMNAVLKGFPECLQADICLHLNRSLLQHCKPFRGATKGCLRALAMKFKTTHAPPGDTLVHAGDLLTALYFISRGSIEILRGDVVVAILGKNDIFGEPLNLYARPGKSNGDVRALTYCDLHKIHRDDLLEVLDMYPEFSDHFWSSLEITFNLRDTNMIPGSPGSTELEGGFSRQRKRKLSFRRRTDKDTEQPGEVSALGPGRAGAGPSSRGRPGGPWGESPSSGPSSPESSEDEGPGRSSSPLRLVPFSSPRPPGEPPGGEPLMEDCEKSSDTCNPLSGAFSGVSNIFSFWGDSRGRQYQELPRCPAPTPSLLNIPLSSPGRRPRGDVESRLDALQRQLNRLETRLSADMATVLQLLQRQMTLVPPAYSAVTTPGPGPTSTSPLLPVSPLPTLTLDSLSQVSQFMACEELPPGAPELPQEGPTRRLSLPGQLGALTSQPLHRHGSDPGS

SMILES | hERG current change (%, negative = inhibition) at 1uM [%]
Cc1nc(C)c(C(=O)OCC(=O)NCc2ccccc2)s1 | 7.4
COc1ccccc1-n1cnnc1SCC(=O)Nc1cccc(S(=O)(=O)N2CCCCC2)c1 | 8.63
CC(=O)Nc1ccc(S(=O)(=O)n2nc(C)cc2C)cc1 | 18.9
CSc1nc(NCC(C)O)c2c3c(sc2n1)CN(C)CC3 (centres unmarked) | -0.315
Cc1ccc(Cn2nnc3c(=O)[nH]c(C4CCN(S(=O)(=O)c5ccc(C)cc5)CC4)nc32)cc1 | 2.63
Cn1nc(OC(=O)Nc2cccc(Cl)c2)cc1C(F)(F)F | 9.41
Cc1ccc(-n2cc(CN(C)Cc3nccn3C)c(-c3cccc(C)c3)n2)cc1 | 10.8
Cc1ccccc1OCCn1cc(C(=S)N2CCCC2)c2ccccc21 | 8.23
O=C(O)CC1(CC(=O)Nc2ccc(F)cc2F)CCCCC1 | 8.89
Cc1cccc(-c2nc(CS(=O)CC(=O)NCCCSC3CCCCC3)c(C)o2)c1 (centres unmarked) | 6
CCC(C)(C)C1CCC2(CC1)NC(=O)N(CC(=O)N(C)Cc1ccc(OC(F)F)cc1)C2=O (centres unmarked) | 6.54
CC(c1ccncc1)C(C)c1ccncc1 (centres unmarked) | 11.2
Cc1noc(C)c1-c1ccc2ncnc(NC(C)c3ccco3)c2c1 (centres unmarked) | 13.5
O=C(c1cc(-c2ccc(O)cc2)on1)N1CCCC1 | 5.77
Cc1cc(C(=O)COC(=O)c2n[nH]c(=O)c3ccccc23)c(C)n1C | 9.86
CC(=O)C(C)Oc1cc(C)cc2oc(=O)c(C)c(C)c12 (centres unmarked) | 12
CC(=O)Nc1cccc(C(=O)OCC(=O)NC2CCCCCCC2)c1 | 3.9
CC(=O)N1CCN(c2ccc(NC(=O)/C=C/c3ccccc3)cc2)CC1 | 3.08
Cc1cc(CNC(=O)CCc2nnc(CCCc3ccccc3)o2)nn1C | 11.5

SMILES | hERG current change (%, negative = inhibition) at 1uM [%]
CCC1(c2ccccc2)NC(=O)N(CC(=O)Nc2ccc3c(c2)OCO3)C1=O (centres unmarked) | 1.81
COc1ccc(OC)c(S(=O)(=O)N2CCN(C(=O)NC3CCCCC3)CC2)c1 | 5.26
Cc1ccccc1S(=O)(=O)Cc1ccc(C(=O)NC2CCCC2)o1 | 4.39
COc1ccccc1C1C(C(=O)NCc2ccccc2)=C(C)Nc2ncnn21 (centres unmarked) | 3.78
O=C(CSc1nnc(-c2ccncc2)n1-c1ccccc1)Nc1ccc(C(=O)O)cc1 | 10.2
O=C(CSc1nc2[nH]ncc2c(=O)n1-c1ccccc1)NCCc1ccccc1 | 17.1
Cc1ccccc1Nc1ncnc2c1cnn2Cc1ccccc1 | 10.5
CN(C)/C=C1\C(=O)Nc2ccccc21 | 13.9
O=C(OCC(=O)N1CCc2ccccc2C1)c1cccc([N+](=O)[O-])c1 | 5.85
COc1ccc2cc(C(=O)C3CCCN(Cc4cccc(C)n4)C3)ccc2c1 (centres unmarked) | 11.2
N#Cc1ccc(NC(=O)COC(=O)C2=COCCO2)cc1 | 4.69
CCOC(=O)CCC(=O)NCc1ccc2[nH]c(C)cc2c1 | 11.2
COc1ccc(-c2c(C#N)c(N)nc(Sc3ccc(Cl)cc3)c2C#N)cc1 | 10.9
Cc1ccc(CNC(=O)c2cccc(OCc3c(C)noc3C)c2)cc1 | 3.43
O=C(COC(=O)CCC(=O)c1ccc(F)cc1)Nc1nnc(-c2ccccc2)o1 | -0.682
COC(=O)C(CC(=O)Nc1cc(C)ccc1C)Nc1ccccc1OC (centres unmarked) | -6.02
COc1cccc(NC(=O)CN(C)C(C)C(=O)Nc2ccc(S(=O)(=O)N3CCOCC3)cc2)c1 (centres unmarked) | 9.99
O=C(c1cccc([N+](=O)[O-])c1)N1CCN(c2ccc(Cl)cc2)CC1 | 2.13
CC[C@H](C)[C@H](NC(=O)OCc1ccccc1)C(=O)Nc1ccc(NC(C)=O)cc1 | 13.7

SMILES | hERG current change (%, negative = inhibition) at 1uM [%]
O=C(O)c1ccccc1N/N=C/c1cc(Br)cc(Br)c1O | 9.85
O=S(=O)(c1ccc(F)cc1)N1CCC2(CC1)OCCN2S(=O)(=O)c1cccs1 | 6.15
CCOc1ccc(N/C(N)=N/c2nc(C)cc(C)n2)cc1 | 4.81
COC(=O)C1=C(c2ccc3ccccc3c2)C[C@@H]2CC[C@H]1N2C(=O)NCc1ccc(F)cc1 | 16
Cc1ccc2nc(N(CCCN(C)C)C(=O)c3sc4ccccc4c3Cl)sc2c1.Cl | 0.599
Clc1cccc(Cl)c1/C=C/c1ccn[nH]1 | 10.7
CN(C)CCCNS(=O)(=O)c1ccc(N2CCC(c3ccc(Cl)cc3)=N2)cc1 | 10.8
Cc1ccc(C2(C)NC(=O)N(CC(=O)N3CCN(S(=O)(=O)c4cccs4)CC3)C2=O)cc1 (centres unmarked) | 8.78
CCCOc1ccc(C2/C(=C(/O)c3ccccc3)C(=O)C(=O)N2CCCN(C)C)cc1OC (centres unmarked) | 11.2
COc1ccc(N2C(=O)NC(=O)/C(=C\c3ccccc3[N+](=O)[O-])C2=O)cc1 | 8.9
Cc1cc(Cl)c(S(=O)(=O)N2CCCCCC2)cc1OCC(N)=O | 6.08
Cc1nnc(SCCn2c(N3CCCC(C)C3)nc3c2c(=O)n(C)c(=O)n3C)s1 (centres unmarked) | 10.4
O=[N+]([O-])c1ccc(Cc2ccccn2)cc1 | 7.18
Cc1cccc(N=C2NC(=O)/C(=C\c3cccs3)S2)c1 | 10.6
Cc1cc(C)c2c3c(cn2n1)c(=O)n(C)c(=O)n3C | 6.24
Fc1ccc2[nH]c3c(Cl)ncnc3c2c1 | 8.57
COc1ccccc1N1CCN(C(=O)Nc2cccc(C)c2)CC1 | 8.62
O=C(Nc1ccc(C(=O)O)cc1)Nc1cccc2ccccc12 | 12.4

Source: paper PMC4336329 (PLoS ONE, 2015)
